Laboratory results reported in PubChem BioAssay AID485294 (National Center for Advancing Translational Sciences (NCATS), 2010).
Among all 370,000 compounds or so, about 150 (0.041%) were called active. This list was built around the results that the source calls inconclusive (neither active nor inactive); the mix of calls is not that of the screen. Calls come from the whole dose curve; as a rule, active = well fitted inhibition curve with a large enough effect; inconclusive = small, poorly fitted or top-dose-only effect; inactive = flat fitted curve, though single readings scatter. Potencies of inconclusive entries are left out as doubtful fits.
Note: nearly all actives have a fitted effect of over 25% in size.
Potency is the fitted concentration of half-maximal effect; tags give direction and shape of the fitted curve.

Each compound was assayed against Beta-lactamase (Escherichia coli (strain K12)) (UniProt P00811) (assay: qHTS Inhibitors of AmpC Beta-Lactamase (assay with detergent)). Conditions: AmpC hydrolysis of nitrocefin, absorbance 480 nm, 0.01% Triton; series mostly up to 114 µM.
Sequence of UniProt P00811 (P00811 whole entry, looked up): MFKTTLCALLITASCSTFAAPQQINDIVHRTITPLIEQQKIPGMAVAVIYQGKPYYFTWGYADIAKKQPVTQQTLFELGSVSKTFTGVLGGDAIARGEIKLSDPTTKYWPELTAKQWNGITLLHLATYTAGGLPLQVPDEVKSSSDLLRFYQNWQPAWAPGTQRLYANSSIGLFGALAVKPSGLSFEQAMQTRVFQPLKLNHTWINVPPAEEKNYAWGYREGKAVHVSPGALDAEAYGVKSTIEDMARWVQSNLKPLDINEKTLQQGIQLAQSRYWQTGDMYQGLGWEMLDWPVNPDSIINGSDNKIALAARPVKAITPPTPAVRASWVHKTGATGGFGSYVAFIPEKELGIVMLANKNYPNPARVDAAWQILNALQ
Outline: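 AmpC (5.3 nM in the dispensed reagent) in 20 mM phosphate pH 7.0 with 0.01% (detergent screen) or 0.0001% Triton X-100 was preincubated with compounds for 15 min at room temperature. Nitrocefin was then added from an 800 uM solution, and hydrolysis was followed at 480 nm.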
`N#Cc1nc(COc2ccc(Br)cc2)oc1N1CCCCCC1` was tested, and the Potency was inconclusive [inhibitor, full curve, poor fit].
In the case of `COc1ccc(N(CC(=O)NCCSCc2c(F)cccc2Cl)S(C)(=O)=O)cc1OC`, the Potency is reported as “inactive”.
In the case of `CCCCN(CCCC)S(=O)(=O)c1ccc(C(=O)Nc2nnc(COC)o2)cc1`, the Potency is reported as “inactive”.
`Cc1c(CC(=O)O)c(=O)oc2cc(OCc3ccc(Br)cc3)ccc12` was tested, and the Potency was inconclusive [inhibitor, full curve, poor fit].
With `C=CCn1c(SCN2C(=O)c3ccccc3C2=O)nc2ccc(Cl)cc2c1=O` the Potency was “inactive”.
For `CC(=O)c1ccccc1NC(=O)c1ccc2c(c1)NC(=O)C(C)S2` (configuration not stated), the Potency was “inactive”.
For `CC1CCN(CCNC(=O)C2CCCN(S(=O)(=O)c3cccc4nonc34)C2)CC1` (configuration not stated), the Potency was inconclusive [inhibitor, full curve, poor fit].
In the case of `Cc1ccc2c(c1)C(c1ccc(F)cc1)N(C(=O)COc1ccc(Cl)cc1Cl)CC(=O)N2` (configuration not stated), the Potency is reported as “inactive”.
With `O=C(NNC(=O)c1ccccc1Br)c1ccc(SCC2CCCO2)c([N+](=O)[O-])c1` (configuration not stated) the Potency was inconclusive [inhibitor, full curve, poor fit].
In the case of `Cc1cccc(NC(=O)c2ccc(C(=O)c3ccccc3)o2)c1`, the Potency is reported as “inactive”.
For `C=CCc1ccc(OCCCCN2CCC(C)CC2)c(OC)c1`, the Potency was “inactive”.
`COc1ccc(N)c2c1C(=O)c1ccccc1C2=O` was tested, and the Potency was inconclusive [inhibitor, partial curve].
In the case of `CCCC(=O)Nc1ccc(NC(=O)c2cccc(OC)c2)nc1`, the Potency is reported as inconclusive [inhibitor, single point].
With `O=C(N/N=C/c1ccc(O)cc1)c1ccc(NC(=O)c2ccccc2Br)cc1` the Potency was inconclusive [inhibitor, single point].
For `COC(=O)c1ccc(CN2CCCC(CO)(Cc3ccccc3F)C2)cc1` (configuration not stated), the Potency was inconclusive [inhibitor, full curve, poor fit].
For `CCCc1nnc(NC(=O)c2ccc(N3C(=O)C4C5C=CC(C5)C4C3=O)cc2)s1` (configuration not stated), the Potency was inconclusive [inhibitor, full curve, poor fit].
In the case of `CC(=O)Nc1ccc(S(=O)(=O)NC(C)C(=O)NCC(c2ccco2)N(C)C)cc1` (configuration not stated), the Potency is reported as inconclusive [inhibitor, full curve].
For `CCOC(=O)C1=C(CSc2nc(-c3ccncc3)ccc2C#N)OC(N)=C(C#N)C1c1ccc(OC)cc1` (configuration not stated), the Potency was inconclusive [inhibitor, single point].
In the case of `Cc1ccc(CNC(=O)C2CCCN(S(=O)(=O)c3cccc4nsnc34)C2)cc1` (configuration not stated), the Potency is reported as “inactive”.
For `CCOc1nc(C)ccc1-c1noc(C)n1`, the Potency was inconclusive [inhibitor, full curve, poor fit].
For `O=C(/C=C/c1ccccc1Cl)Nc1ccc2c(c1)C(=O)NC2=O`, the Potency was inconclusive [inhibitor, partial curve].
For `O=C(CNCCO)N1CCc2ccccc21`, the Potency was “inactive”.
For `COCCC(=O)N1CCC(Oc2ccc(C(=O)N3CCC(N(C)C)C3)cc2)CC1` (configuration not stated), the Potency was inconclusive [inhibitor, partial curve].
`Cc1ccnc(SCc2ccc(C(=O)O)cc2)n1` was tested, and the Potency was inconclusive [inhibitor, full curve, poor fit].
`COc1ccc(CNc2oc(-c3ccccc3)nc2C#N)cc1` was tested, and the Potency was inconclusive [inhibitor, partial curve, poor fit].
`Cn1cccc1C(=O)NC1CCCCC1` was tested, and the Potency was inconclusive [inhibitor, full curve, poor fit].
In the case of `Cc1cc2nnc(SCC(=O)Nc3ccc(F)c(Cl)c3)n2c2ccccc12`, the Potency is reported as “inactive”.
`Cc1ccc(C)c(Cn2cnc3c(nnn3-c3ccc(F)cc3)c2=O)c1` was tested, and the Potency was inconclusive [inhibitor, single point].
In the case of `Cc1ccc(OCCNC(=O)c2ccc(NC(=O)CC3SC(N4CCCC4)=NC3=O)cc2)cc1` (configuration not stated), the Potency is reported as inconclusive [inhibitor, single point].
In the case of `CCOC(=O)C1=C(CSc2nccn2C)NC(=O)NC1c1ccc(OC)cc1` (configuration not stated), the Potency is reported as inconclusive [inhibitor, single point].
With `O=C(/C=C/c1ccc(O)cc1)c1ccc(O)cc1O` the Potency was inconclusive [inhibitor, partial curve, poor fit].
`CC1(C)Oc2ccc3ccc(=O)oc3c2/C(=C/Nc2ccccc2)C1=O` was tested, and the Potency was inconclusive [inhibitor, full curve, poor fit].
With `COC(=O)c1sccc1NC(=O)c1ccc(OC)cc1OC` the Potency was inconclusive [inhibitor, full curve, poor fit].
With `COc1ccc(C2(C(N)=O)CCCCC2)cc1OC` the Potency was inconclusive [inhibitor, single point].
With `CCN1CCN(S(=O)(=O)c2ccc3c(c2)NC(=O)CS3)CC1` the Potency was inconclusive [inhibitor, full curve, poor fit].
`O=C(Nc1cccc(OCC(=O)N2CCOCC2)c1)c1cccc(Cl)c1` was tested, and the Potency was inconclusive [inhibitor, full curve, poor fit].
For `Cc1ccc(C)c(OCC(O)CN2CCC(CN3C(=O)c4cccc5cccc(c45)C3=O)CC2)c1` (configuration not stated), the Potency was inconclusive [inhibitor, full curve, poor fit].
For `COCCC(=O)N1CCC(Oc2ccc(C(=O)NCc3nccn3C)cc2)CC1`, the Potency was “inactive”.
With `O=C(COc1cccc(Cl)c1)Nc1ccc2c(c1)CCC2` the Potency was inconclusive [inhibitor, full curve, poor fit].
With `CCCCOCCCNC(=O)COc1ccccc1` the Potency was “inactive”.
For `C=CCc1cccc(CNn2cnnc2)c1O`, the Potency was inconclusive [inhibitor, full curve, poor fit].
In the case of `CC1CCN(C(=O)C(Cc2ccccc2)n2cccc2)CC1` (configuration not stated), the Potency is reported as inconclusive [inhibitor, full curve, poor fit].
For `CC1=NN(c2nc(-c3ccccc3)cs2)C(=O)C1`, the Potency was “inactive”.
For `Cc1ccc(NC(=O)c2ccncc2)cc1[N+](=O)[O-]`, the Potency was inconclusive [inhibitor, single point].
`CCCCN1C(=O)c2ccc(C(=O)Nc3c(N)n(CCCC)c(=O)n(C)c3=O)cc2C1=O` was tested, and the Potency was inconclusive [inhibitor, full curve, poor fit].
For `Cc1ccc(Nc2nc(-c3sc(NC(=O)c4ccco4)nc3C)cs2)cc1`, the Potency was “inactive”.
`O=C(COC(=O)CCN=C1NS(=O)(=O)c2ccccc21)NNC(=O)c1ccccc1` was tested, and the Potency was inconclusive [inhibitor, full curve, poor fit].
`CNC(=O)c1ccsc1NC(=O)C1CCN(S(=O)(=O)c2cccs2)CC1` was tested, and the Potency was inconclusive [inhibitor, partial curve, poor fit].
With `Cc1ccccc1C(=O)O/N=C(\N)c1ccncc1` the Potency was inconclusive [inhibitor, full curve, poor fit].
For `CC1C(c2ccccc2)N(C)C(c2ccccc2)CC1(O)c1ccc(F)cc1` (configuration not stated), the Potency was “inactive”.
In the case of `Cc1[nH]c(=O)[nH]c(=O)c1S(=O)(=O)N1CCC(C(=O)N2CCN(c3cccc(C(F)(F)F)c3)CC2)CC1`, the Potency is reported as inconclusive [inhibitor, full curve].
For `CCN1CCN(CCCNC(=O)c2cc3c(=O)n(C)c4ccccc4c3s2)CC1`, the Potency was “inactive”.
`CCOC(=O)c1sc(NC(=O)Nc2ccc(Cl)cc2)nc1C` was tested, and the Potency was inconclusive [inhibitor, full curve, poor fit].
With `CC(=O)Nc1cccc(NS(=O)(=O)Cc2ccc(Cl)cc2)c1` the Potency was “inactive”.
`O=C1NCCCC1C(=O)NCCNC(=O)C(F)(F)F` (configuration not stated) was tested, and the Potency was inconclusive [inhibitor, full curve, poor fit].
`O=C(CSc1nnc(-c2ccccc2)o1)N1CCN(c2ccccc2)CC1` was tested, and the Potency was inconclusive [inhibitor, partial curve].
`O=C(CCCCn1c(=O)c2ccccc2n(Cc2ccc(Cl)cc2)c1=O)NCc1ccco1` was tested, and the Potency was inconclusive [inhibitor, single point].
In the case of `Cc1ccc(S(=O)(=O)Cn2nnnc2CN2CCOCC2)cc1`, the Potency is reported as “inactive”.
In the case of `COCn1ccnc1C(O)(c1ccc(OC)cc1)c1ccc(OC)cc1`, the Potency is reported as inconclusive [inhibitor, partial curve].
In the case of `NC(=O)C1CCN(C(=O)C2CCN(C(=O)Nc3ccccc3)CC2)CC1`, the Potency is reported as inconclusive [inhibitor, full curve].
For `CC(C)CN(C(=O)COC(=O)C1=COCCO1)c1c(N)n(Cc2ccccc2)c(=O)[nH]c1=O`, the Potency was inconclusive [inhibitor, full curve, poor fit].
With `O=C(CN1CSCC1=O)N1CCN(S(=O)(=O)c2cc(C(F)(F)F)ccc2Cl)CC1` the Potency was “inactive”.
For `Cc1cccc(NS(=O)(=O)c2cc(C(=O)N3CCCCCC3)ccc2C)c1`, the Potency was inconclusive [inhibitor, full curve].
For `Cn1c(C(=O)NCc2ccccn2)cc2c(=O)n(C)c3ccccc3c21`, the Potency was inconclusive [inhibitor, full curve, poor fit].
For `CC(=O)N1CCc2c(sc3c2c(=O)n(CCc2ccccc2)c(=O)n3CC(=O)Nc2ccc(C)c(F)c2)C1`, the Potency was “inactive”.
`O=C(Nc1ccc(F)cc1)C1CCN(C(=O)NCc2ccccc2)CC1` was tested, and the Potency was inconclusive [inhibitor, full curve, poor fit].
In the case of `Cc1ccccc1-c1nnc(-c2ccccc2)o1`, the Potency is reported as inconclusive [inhibitor, full curve, poor fit].
